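Tested at 5 concentrations; 48 h exposure; 96-well plates; endpoints linearly interpolated, else capped at highest concentration. TGI is the concentration that stops growth completely.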 The source holds more than one record for some entries. This is not the full list of results. An entry can have further records. A record mostly stands for its own series of concentrations, not given here; some values may only mark the edge of a range.
Test system: MDA-MB-468 breast
Assay: NCI anticancer screen, dose series, 48 h

SMILES: COc1ccc2c(c1)nnn1c3ncccc3c(N=O)c21
- TGI: 141 nM and 15.2 µM

From PubChem BioAssay (NCI)
